Assay results reported in PubChem BioAssay AID493014 (National Center for Advancing Translational Sciences (NCATS), 2011).
About 170 (0.05%) of roughly 340,000 compounds were called active. Not shown: some 26% with an inconclusive outcome. Calls follow the shape of the dose curve; as a rule, active = well fitted inhibition curve with a large enough effect in the signal ratio, with a control signal flat (not every such curve was filed as active); inconclusive = small, poorly fitted or top-dose-only effect, or effect the other way, or a change in a side signal; inactive = flat fitted curve, though single readings scatter; the % refers to the signal ratio. The list shows a part of the results, in another mix than the full data.

Assay: qHTS Assay to Find Inhibitors of Chronic Active B-Cell Receptor Signaling;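 as to activity change, negative = inhibition: plate controls were basal doxycycline-induced cells for no effect and cells given 10 µM MG132 for full effect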
Conditions: ABC-DLBCL IkBa-CBG/CBR reporter, luminescence ratio (green luciferase fused to IkBa over red control in TMD8 lymphoma cells), 4 h; series mostly up to 46.1 µM; activity change, negative = inhibition: at the top concentration
Summary of the method: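 Concentration-response series (up to 46 uM) were applied to TMD8 dual-reporter cells for 4 h at 37C with doxycycline. Green/red ratio, after filter-overlap correction, defined %Activity; red signal alone was normalised to basal cells and zero luminescence.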
Potency is read from the fitted curve at half-maximal effect.

Compound | Potency | activity change, negative = inhibition
Cc1nn(CCC(=O)NNC(=S)NCC(C)C)c(C)c1Br | active: 16.4 µM | 
CCc1ccc(/C=C2/SC(=S)N(CCCC(=O)Nc3ccccc3C(=O)O)C2=O)cc1 |  | inactive: -8.06%
CN1CCN(C(=O)CCCOc2cc(=O)n(C)c3ccccc23)CC1 | active: 25.9 µM | 
O=C(O)C1CCCCC1C(=O)NCCc1ccccc1 (stereo not given) |  | inactive: 17.6%
O=C(C[C@H]1C/C=C\CC[C@@H](Cc2ccc(F)cc2)C(=O)OC[C@H]2CCCN2C1=O)N[C@@H](CO)Cc1ccccc1 |  | inactive: -0.609%
C=CC[C@@H](CC(=O)N[C@@H](CO)Cc1ccccc1)C(=O)N[C@@H](COC(=O)[C@@H](CC=C)Cc1ccc(F)cc1)Cc1c[nH]c2ccccc12 |  | inactive: -2.33%
O=C(Nc1ccc(F)c(F)c1)c1ccc(F)c(S(=O)(=O)N2CCC3(CC2)OCCO3)c1 |  | inactive: 0.232%
CCN1C(N(C)CCc2cccs2)=N[C@@H](c2ccccc2)C(C(=O)OC)=C1C |  | inactive: 10.7%
CC(C)(C)OC(=O)C[C@@H]1C/C=C\C[C@H](CC(=O)N[C@H](CO)Cc2ccccc2)C(=O)N2CCC[C@H]2COC1=O |  | inactive: 1.62%
O=C(Cc1ccc(-n2c(=O)c3ccccc3n(Cc3ccc(F)cc3)c2=O)cc1)NCC1CCCO1 (stereo not given) | active: 8.2 µM | 
C[C@@H](NC(=O)c1nc[nH]c1C(=O)NCCCCCNC(=O)OC(C)(C)C)c1ccccc1 |  | inactive: -5.71%
O=C(N/C(=C/c1cccs1)C(=O)N1CCOCC1)c1ccco1 |  | inactive: 2.17%
C[C@H](NC(=O)C1(c2ccccc2)CCN(C(=O)[C@H]2CSCN2C(=O)OC(C)(C)C)CC1)C(=O)O |  | inactive: -0.658%
COc1cc(N)c(Cl)cc1C(=O)N[C@H]1CCN(CCCOc2ccc(F)cc2)C[C@H]1OC |  | inactive: -19%
COc1ccc(C(=O)OCC#CCSc2nnc(-c3cccc4ccccc34)o2)cc1 |  | inactive: 10.8%
O=C(NCC1CCCO1)/C(=C\c1ccc(Cl)cc1)NC(=O)c1ccccc1 (stereo not given) |  | inactive: -0.198%
O=C(Nc1cccc(Cl)c1Cl)c1cc(S(=O)(=O)NCCc2ccccc2)ccc1F |  | inactive: -0.223%
CC1(C)O[C@@H]2C[C@H]3[C@@H]4C[C@H](F)C5=CC(=O)C=C[C@]5(C)[C@H]4[C@@H](O)C[C@]3(C)[C@]2(C(=O)CO)O1 |  | inactive: -22.5%

Compound | Potency | activity change, negative = inhibition
COc1cc(/C=C(\C#N)c2nc3ccccc3[nH]2)ccc1OC(=O)c1ccco1 |  | inactive: -0.0793%
CCCC/C(O)=C/c1nc2ccccc2[nH]c1=O | active: 14.6 µM | 
Oc1cccc2c(-c3nn[nH]n3)ccnc12 |  | inactive: 8.59%
COC(C[C@@H]1O[C@@H]1[C@H](O)[C@H](C)OCc1ccccc1)OC |  | inactive: 1.28%
C=CCC[C@@H](Cc1ccc(F)cc1)C(=O)OC[C@H](Cc1c[nH]c2ccccc12)NC(=O)[C@@H](CC=C)CC(=O)N[C@@H](CO)Cc1ccccc1 |  | inactive: -2.94%
Cc1nc2nc[nH]n2c(=O)c1NC(=O)CC12CC3CC(CC(C3)C1)C2 |  | inactive: 0.589%
Cc1cccc(N2CCN(S(=O)(=O)c3c(C)[nH]c(=O)[nH]c3=O)CC2)c1C |  | inactive: 17%
CN(Cc1ccco1)c1ncnc2ccc(-c3ccc4c(ccn4C)c3)cc12 | active: 6.51 µM | 
COc1ccc(-c2cc(=O)c3c(OC)c(OC)c(OC)c(OC)c3o2)cc1OC |  | inactive: -11.9%
C[C@H]1COC(=O)[C@@H](Cc2ccc(F)cc2)C/C=C\C[C@H](CC(=O)NCCO)C(=O)N1 |  | inactive: -1.89%
COc1ccccc1NC(=O)CCN1C(=O)/C(=C/c2cc(OC)c(OC)c(OC)c2)SC1=S |  | inactive: 2.22%
C[C@H]1CN([C@@H](C)CO)C(=O)c2cccc(NC(=O)C3CC3)c2O[C@H]1CN(C)CC1CCCCC1 |  | inactive: 1.23%
Cc1[nH][nH]c(=O)c1C(c1ccccc1[N+](=O)[O-])C(C#N)C#N (stereo not given) |  | inactive: 9.01%
NC1=NC[C@H](Cc2ccc(O)cc2)N1CCc1cc(C(F)(F)F)cc(C(F)(F)F)c1 |  | inactive: -4.49%
OCC[C@@H]1C[C@H](O)[C@@H](O)[C@@]2(OCc3ccccc32)O1 |  | inactive: -1.61%
O=C1NC[C@H](c2ccccc2)OC(=O)[C@H](Cc2ccc(F)cc2)C/C=C\C[C@@H]1CC(=O)N(CCO)Cc1ccccc1 |  | inactive: -0.26%
CCC(=O)N1c2ccccc2C(N(C(C)=O)c2ccccc2)CC1C (stereo not given) |  | inactive: -9.96%
